# Measurements taken from the supplement of paper PMC4604168 (melanoma cell lines).
# Some of the results follow. Repeats are few or missing, and single values can be far off.
# Tests used:
# Assay in all cases: cell count relative to DMSO control; melanoma cells; higher = more viable cells
# Conditions in all cases: library dose: low library concentration; 72 h
# MZ2-MEL = system: MZ2-MEL
# MeWo = system: MeWo
# RPMI7951 = system: RPMI7951
# RVH-421 = system: RVH-421
# SkMel28 = system: SkMel28
# SkMel2 = system: SkMel2
# SkMel30 = system: SkMel30
# UACC62 = system: UACC62
# SkMel5 = system: SkMel5
# UACC257 = system: UACC257
# 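Also: cell number obtained by counting DAPI-stained nuclei in high-throughput microscope images with image analysis software, screen run in 1,536-well plates.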
Compound,cell count (MZ2-MEL) [%],cell count (MeWo) [%],cell count (RPMI7951) [%],cell count (RVH-421) [%],cell count (SkMel28) [%],cell count (SkMel2) [%],cell count (SkMel30) [%],cell count (UACC62) [%],cell count (SkMel5) [%],cell count (UACC257) [%]
"CC(=O)O[C@@]12CO[C@@H]1C[C@H](O)[C@@]1(C)C(=O)[C@H](O)C3=C(C)[C@@H](OC(=O)[C@H](O)[C@@H](NC(=O)OC(C)(C)C)c4ccccc4)C[C@@](O)([C@@H](OC(=O)c4ccccc4)[C@H]21)C3(C)C [Docetaxel] + Nc1ncn([C@H]2C[C@H](O)[C@@H](CO)O2)c(=O)n1 [decitabine] (first compound 0.0001 µM, partner dose 0.1 µM)",44,45.6,30.8,67.7,69.8,41.4,50.6,42.5,–,–
"CC(=O)O[C@@]12CO[C@@H]1C[C@H](O)[C@@]1(C)C(=O)[C@H](O)C3=C(C)[C@@H](OC(=O)[C@H](O)[C@@H](NC(=O)OC(C)(C)C)c4ccccc4)C[C@@](O)([C@@H](OC(=O)c4ccccc4)[C@H]21)C3(C)C [Docetaxel] + NC1(c2ccc(-c3nc4ccn5c(=O)[nH]nc5c4cc3-c3ccccc3)cc2)CCC1 [MK2206] (first compound 0.0001 µM, partner dose 0.4 µM)",41.3,35,44.5,56.3,22.7,38.2,36.5,36.8,–,–
"CC(=O)c1c(C)c2cnc(Nc3ccc(N4CCNCC4)cn3)nc2n(C2CCCC2)c1=O [palbociclib] + Nc1cccc2c1CN(C1CCC(=O)NC1=O)C2=O [lenalidomide] (first compound 0.04 µM, partner dose 1 µM)",85.2,77.3,71.2,71.7,63.1,85.2,79.1,76.6,–,–
"Nc1nc(F)nc2c1ncn2[C@@H]1O[C@H](CO)[C@@H](O)[C@@H]1O [fludarabine] + OCc1c[nH]c2ccccc12 [Indole-3-carbinol] (first compound 0.2 µM, partner dose 0.8 µM)",89.9,32.7,89.2,85.7,74.7,5.65,16.8,68.8,–,–
"CC(=O)c1c(C)c2cnc(Nc3ccc(N4CCNCC4)cn3)nc2n(C2CCCC2)c1=O [palbociclib] + Cn1nnc2c(C(N)=O)ncn2c1=O [temozolomide] (first compound 0.04 µM, partner dose 2 µM)",90.7,73.6,93.6,87.2,74.3,76,59.5,64.8,–,–
"Nc1ncn([C@H]2C[C@H](O)[C@@H](CO)O2)c(=O)n1 [decitabine] + C#Cc1cccc(Nc2ncnc3cc(OCCOC)c(OCCOC)cc23)c1 [erlotinib] (first compound 0.1 µM, partner dose 0.8 µM)",84.5,91,77.5,90,79.4,102,86.4,72,–,–
"CO[C@H]1C[C@@H]2CC[C@@H](C)[C@@](O)(O2)C(=O)C(=O)N2CCCC[C@H]2C(=O)O[C@H]([C@H](C)C[C@@H]2CC[C@@H](OCCO)[C@H](OC)C2)CC(=O)[C@H](C)/C=C(\C)[C@@H](O)[C@@H](OC)C(=O)[C@H](C)C[C@H](C)/C=C/C=C/C=C/1C [everolimus] + CC1(C)NC(=O)N(c2ccc([N+](=O)[O-])c(C(F)(F)F)c2)C1=O [nilutamide] (first compound 0.02 µM, partner dose 1 µM)",77.2,66.1,96.1,71.9,49.5,–,62.8,72.5,94.8,57.9
"Nc1ccn([C@@H]2O[C@H](CO)[C@@H](O)C2(F)F)c(=O)n1 [gemcitabine] + CC(=O)c1c(C)c2cnc(Nc3ccc(N4CCNCC4)cn3)nc2n(C2CCCC2)c1=O [palbociclib] (first compound 0.0004 µM, partner dose 0.04 µM)",83.8,83.6,79.4,69.5,75.2,106,80.4,89.9,–,–
"Nc1ncn([C@H]2C[C@H](O)[C@@H](CO)O2)c(=O)n1 [decitabine] + Clc1ccc(Nc2nnc(Cc3ccncc3)c3ccccc23)cc1 [vatalanib] (first compound 0.1 µM, partner dose 2 µM)",85.4,83.9,71,91,82.1,91.6,110,76.3,–,–
"Nc1ccn([C@@H]2O[C@H](CO)[C@@H](O)C2(F)F)c(=O)n1 [gemcitabine] + COc1ccc(Cl)c(Nc2nc3ccccc3nc2NS(=O)(=O)c2cccc(NC(=O)C(C)(C)N)c2)c1 [XL147] (first compound 0.0004 µM, partner dose 0.8 µM)",96,102,96.1,112,117,102,107,94.1,–,–
"Nc1nc(F)nc2c1ncn2[C@@H]1O[C@H](CO)[C@@H](O)[C@@H]1O [fludarabine] + Cn1c(Nc2ccc(C(F)(F)F)cc2)nc2cc(Oc3ccnc(-c4ncc(C(F)(F)F)[nH]4)c3)ccc21 [CHIR265] (first compound 0.2 µM, partner dose 0.08 µM)",91.5,33.8,49,57.3,43.5,4,16,43.7,–,–
"CC(=O)O[C@@]12CO[C@@H]1C[C@H](O)[C@@]1(C)C(=O)[C@H](O)C3=C(C)[C@@H](OC(=O)[C@H](O)[C@@H](NC(=O)OC(C)(C)C)c4ccccc4)C[C@@](O)([C@@H](OC(=O)c4ccccc4)[C@H]21)C3(C)C [Docetaxel] + CCCS(=O)(=O)Nc1ccc(F)c(C(=O)c2c[nH]c3ncc(Cl)cc23)c1F [PLX4720] (first compound 0.0001 µM, partner dose 0.08 µM)",39.8,42.7,38.5,55.8,32.7,43,31.7,38.6,–,–
"Nc1ccn([C@@H]2O[C@H](CO)[C@@H](O)C2(F)F)c(=O)n1 [gemcitabine] + Cn1nnc2c(C(N)=O)ncn2c1=O [temozolomide] (first compound 0.0004 µM, partner dose 2 µM)",104,102,87.9,62,76.7,103,91.2,76.3,–,–
"CC(=O)O[C@@]12CO[C@@H]1C[C@H](O)[C@@]1(C)C(=O)[C@H](O)C3=C(C)[C@@H](OC(=O)[C@H](O)[C@@H](NC(=O)OC(C)(C)C)c4ccccc4)C[C@@](O)([C@@H](OC(=O)c4ccccc4)[C@H]21)C3(C)C [Docetaxel] + C=C(c1ccc(C(=O)O)cc1)c1cc2c(cc1C)C(C)(C)CCC2(C)C [Bexarotene] (first compound 0.0001 µM, partner dose 2 µM)",43.2,36.6,30.6,50,44.2,39,33.5,42.9,–,–
"Nc1ncn([C@H]2C[C@H](O)[C@@H](CO)O2)c(=O)n1 [decitabine] + CC(=O)c1c(C)c2cnc(Nc3ccc(N4CCNCC4)cn3)nc2n(C2CCCC2)c1=O [palbociclib] (first compound 0.1 µM, partner dose 0.04 µM)",81.1,78.5,80.9,69.4,75.1,85.9,79,65.7,–,–
"Nc1ccn([C@@H]2O[C@H](CO)[C@@H](O)C2(F)F)c(=O)n1 [gemcitabine] + Cn1c(Nc2ccc(C(F)(F)F)cc2)nc2cc(Oc3ccnc(-c4ncc(C(F)(F)F)[nH]4)c3)ccc21 [CHIR265] (first compound 0.0004 µM, partner dose 0.08 µM)",73.1,70.8,60.7,60.1,84.2,85.1,54.9,44.6,–,–
"Nc1nc(F)nc2c1ncn2[C@@H]1O[C@H](CO)[C@@H](O)[C@@H]1O [fludarabine] + C[C@]1(c2nc3c(C(N)=O)cccc3[nH]2)CCCN1 [Veliparib] (first compound 0.2 µM, partner dose 1.4 µM)",107,37.2,99.1,127,56.3,4.5,15.9,70.1,–,–
"CO[C@H]1C[C@@H]2CC[C@@H](C)[C@@](O)(O2)C(=O)C(=O)N2CCCC[C@H]2C(=O)O[C@H]([C@H](C)C[C@@H]2CC[C@@H](OCCO)[C@H](OC)C2)CC(=O)[C@H](C)/C=C(\C)[C@@H](O)[C@@H](OC)C(=O)[C@H](C)C[C@H](C)/C=C/C=C/C=C/1C [everolimus] + COC(=O)c1sccc1S(=O)(=O)Nc1ccc(Nc2ccccc2)cc1OC [GSK0660] (first compound 0.02 µM, partner dose 1 µM)",72.6,76.9,90.3,115,52,–,59.4,75.8,101,77.3
"Nc1ccn([C@@H]2O[C@H](CO)[C@@H](O)C2(F)F)c(=O)n1 [gemcitabine] + Clc1ccc(Nc2nnc(Cc3ccncc3)c3ccccc23)cc1 [vatalanib] (first compound 0.0004 µM, partner dose 2 µM)",85.2,70.9,77.8,60.6,79.8,97,80.6,80.6,–,–
"CC(=O)c1c(C)c2cnc(Nc3ccc(N4CCNCC4)cn3)nc2n(C2CCCC2)c1=O [palbociclib] + C#Cc1cccc(Nc2ncnc3cc(OCCOC)c(OCCOC)cc23)c1 [erlotinib] (first compound 0.04 µM, partner dose 0.8 µM)",70.7,72.8,62.4,66.2,62.5,69.4,63.8,52.6,–,–
